# Test results from paper PMC4336329 (PLoS ONE, 2015).
# Screen size: about 310,000 compounds; about 14,000 (4.5%) showed an effect of 50% or more. The effect is printed as a negative number. The list shows a part of the results.
# Target: human ether-à-go-go-related gene (hERG) potassium channel (human, UniProt Q12809)
# Test: primary screen, population patch clamp on CHO cells stably expressing hERG
# 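Further: peak tail current of the secondary pulse compared with the same well before compound.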
# human ether-à-go-go-related gene (hERG) potassium channel, sequence (Q12809 whole entry, looked up): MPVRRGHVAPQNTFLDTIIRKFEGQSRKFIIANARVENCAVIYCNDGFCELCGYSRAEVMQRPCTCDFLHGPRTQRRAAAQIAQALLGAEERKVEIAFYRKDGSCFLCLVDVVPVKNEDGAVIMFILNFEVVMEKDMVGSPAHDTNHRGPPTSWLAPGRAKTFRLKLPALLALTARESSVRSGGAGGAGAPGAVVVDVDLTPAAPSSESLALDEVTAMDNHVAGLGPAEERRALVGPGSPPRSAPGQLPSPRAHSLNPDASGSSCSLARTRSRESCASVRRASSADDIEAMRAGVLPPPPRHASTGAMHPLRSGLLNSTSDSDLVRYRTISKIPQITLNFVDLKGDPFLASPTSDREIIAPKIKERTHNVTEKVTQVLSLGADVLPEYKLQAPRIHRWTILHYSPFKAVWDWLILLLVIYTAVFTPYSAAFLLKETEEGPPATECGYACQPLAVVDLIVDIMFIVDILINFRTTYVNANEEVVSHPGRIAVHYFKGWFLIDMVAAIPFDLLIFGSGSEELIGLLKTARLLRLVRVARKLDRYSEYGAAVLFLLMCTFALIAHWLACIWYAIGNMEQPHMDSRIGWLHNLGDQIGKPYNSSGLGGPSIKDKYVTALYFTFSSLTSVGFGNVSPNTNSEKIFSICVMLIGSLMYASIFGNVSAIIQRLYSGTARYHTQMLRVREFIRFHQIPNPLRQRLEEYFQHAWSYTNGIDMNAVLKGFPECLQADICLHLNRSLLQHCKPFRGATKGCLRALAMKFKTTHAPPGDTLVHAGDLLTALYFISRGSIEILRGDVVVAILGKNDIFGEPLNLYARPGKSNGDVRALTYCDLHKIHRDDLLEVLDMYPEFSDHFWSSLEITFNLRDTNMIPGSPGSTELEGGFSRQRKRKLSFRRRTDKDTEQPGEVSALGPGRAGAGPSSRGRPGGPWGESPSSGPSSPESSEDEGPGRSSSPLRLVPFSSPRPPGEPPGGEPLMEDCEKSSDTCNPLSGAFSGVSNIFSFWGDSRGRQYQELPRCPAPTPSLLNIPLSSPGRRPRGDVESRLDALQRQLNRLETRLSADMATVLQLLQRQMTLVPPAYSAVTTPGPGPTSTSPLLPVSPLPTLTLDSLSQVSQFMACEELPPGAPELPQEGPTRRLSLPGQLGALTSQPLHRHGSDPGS
row,SMILES,"hERG current change (%, negative = inhibition) at 10uM"
1,C=CCC1(N(C(C)=O)c2ccccc2)CCCCC1,5.28%
2,CCCCc1c(C)nc(N)[nH]c1=O,18.3%
3,Cc1c(N=C(N)/N=C(\N)Nc2ccccc2)c(=O)n(-c2ccccc2)n1C,5.99%
4,COc1ccc(C(=O)C(C)OC(=O)c2sc(C)nc2C)cc1 (stereo not drawn),4.58%
5,CCCn1c(SCc2nc(N)nc(N3CCCCC3)n2)nc2c1c(=O)n(C)c(=O)n2C,0.163%
6,Cc1c(C(C)C)c(=O)n(-c2ccc(S(=O)(=O)N3CCOCC3)cc2)n1C,17.4%
7,COc1ccc(CCNC(=O)CSc2nnc(-c3ccccc3)o2)cc1OC,-11.1%
8,Cc1ccc(Cn2ccc(NC(=O)CCSc3nc(-c4ccco4)cc(C(F)(F)F)n3)n2)cc1,6.84%
9,Cc1ccc(-n2c(CCc3ccccc3)n[nH]c2=S)cc1C,17.1%
10,CCOC(=O)c1cc2c(=O)c3cc(C)ccc3oc2nc1C,14.3%
11,N#CC1=C(N)Oc2n[nH]c(-c3cccs3)c2C1c1ccco1 (stereo not drawn),10.6%
12,COc1ccc(-n2c(SCC(=O)NCCCN3CCCC3=O)nnc2C(C)N2CCCCC2)cc1 (stereo not drawn),43.4%
13,COc1ccccc1C(=O)Nc1ccc(N2CCCCC2)cc1,-9.04%
14,CCOc1ccc(-n2c(O)c(C=Nc3ccc(NC(C)=O)cc3)c(=O)[nH]c2=O)cc1,-0.319%
15,N#CC1=C(N)N(c2ccc(Oc3ccccc3)cc2)C(=O)C1,-18.4%
16,COc1ccc(CCNC(=O)C2CCC(CNS(=O)(=O)c3ccc(F)cc3)CC2)cc1OC (stereo not drawn),21.3%
17,O=C(NNc1ccccc1[N+](=O)[O-])Nc1cccc(Cl)c1,19.3%
18,CCOC(=O)[C@@H]1[C@H]2COc3cc(OC)ccc3[C@@H]2N2C(=O)N(c3ccc(C)cc3)C(=O)[C@]12C,-2.33%
19,O=S(=O)(NCc1cccs1)c1ccc(Cl)s1,2.82%
20,CS(=O)(=O)N(CC(=O)NCc1ccc2c(c1)OCO2)c1ccc(Cl)cc1,1.65%
21,O=C(c1ccc(Br)cc1)c1cc([N+](=O)[O-])ccc1N1CCCCC1,-25.3%
22,O=C(CSc1nnc(-c2ccccc2)n1Cc1ccco1)Nc1ccc2c(c1)OCCO2,1.43%
23,O=C(NNC1CC(=O)N(c2ccc(Br)cc2)C1=O)c1ccco1 (stereo not drawn),7%
24,COC(=O)c1ccc(C(=O)OC)c(NC(=O)CN2CCC(C)CC2)c1,64.2%
